# Source: article PMC4336329 (PLoS ONE, 2015)
# Hit rate of the full screen: of about 310,000 compounds, about 14,000 (4.5%) showed an effect of 50% or more. Effects have a minus sign here. This is one part of the list.
# Molecular target: human ether-à-go-go-related gene (hERG) potassium channel (human, UniProt Q12809)
# Test: primary screen, population patch clamp on CHO cells stably expressing hERG
# 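Also: peak tail current of the secondary pulse compared with the same well before compound.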
# Sequence of human ether-à-go-go-related gene (hERG) potassium channel (Q12809 whole entry, looked up): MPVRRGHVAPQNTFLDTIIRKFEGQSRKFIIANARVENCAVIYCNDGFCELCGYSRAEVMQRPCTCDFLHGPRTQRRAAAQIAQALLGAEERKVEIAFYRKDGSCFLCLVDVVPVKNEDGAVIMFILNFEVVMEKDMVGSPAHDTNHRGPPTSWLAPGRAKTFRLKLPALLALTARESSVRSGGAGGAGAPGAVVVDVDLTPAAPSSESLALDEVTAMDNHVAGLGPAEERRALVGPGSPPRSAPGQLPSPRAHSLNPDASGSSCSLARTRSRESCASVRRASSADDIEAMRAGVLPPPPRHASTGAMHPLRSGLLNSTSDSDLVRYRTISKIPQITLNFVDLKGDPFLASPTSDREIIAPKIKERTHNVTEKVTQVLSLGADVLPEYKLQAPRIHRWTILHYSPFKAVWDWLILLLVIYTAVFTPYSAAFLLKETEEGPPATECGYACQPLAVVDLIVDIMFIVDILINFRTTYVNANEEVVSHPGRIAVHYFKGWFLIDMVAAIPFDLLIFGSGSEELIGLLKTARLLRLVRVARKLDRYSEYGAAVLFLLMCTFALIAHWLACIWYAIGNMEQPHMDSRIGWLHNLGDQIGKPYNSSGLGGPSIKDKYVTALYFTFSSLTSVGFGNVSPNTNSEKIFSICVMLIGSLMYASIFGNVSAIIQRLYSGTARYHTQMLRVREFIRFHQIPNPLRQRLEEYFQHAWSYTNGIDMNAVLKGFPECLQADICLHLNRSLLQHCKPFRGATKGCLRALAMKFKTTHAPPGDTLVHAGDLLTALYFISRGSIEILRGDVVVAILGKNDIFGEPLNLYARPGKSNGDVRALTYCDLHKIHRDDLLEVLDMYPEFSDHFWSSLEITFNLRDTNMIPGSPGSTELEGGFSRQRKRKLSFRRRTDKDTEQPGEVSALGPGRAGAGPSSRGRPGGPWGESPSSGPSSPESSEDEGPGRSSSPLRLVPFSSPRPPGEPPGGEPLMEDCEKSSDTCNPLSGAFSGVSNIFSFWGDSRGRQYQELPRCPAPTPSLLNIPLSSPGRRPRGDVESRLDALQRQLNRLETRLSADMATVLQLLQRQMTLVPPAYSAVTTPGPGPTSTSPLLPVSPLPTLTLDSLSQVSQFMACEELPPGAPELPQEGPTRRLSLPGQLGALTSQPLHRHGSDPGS
row,Compound,"hERG current change (%, negative = inhibition) at 10uM [%]"
1,COc1ccc(CNC(=S)Nc2ccccc2C)cc1,3.03
2,CCC(=O)Nc1cc(C)c(NC(=O)c2ccccc2OC)cn1,15.9
3,CCOC(=O)Cn1c(=O)oc2cc(S(=O)(=O)Nc3c(C)cc(C)cc3C)ccc21,-4.78
4,CC1(C)C[C@H](O)[C@]2(CO)CC[C@]3(C)C(=CCC4[C@@]5(C)CC[C@H](O)C(C)(C)C5CC[C@]43C)[C@@H]2C1 (stereo partly shown),-13.9
5,O=C(COC(=O)CC1CC2CCC1C2)Nc1ccc(F)cc1 (stereo not shown),-22.4
6,CCOC(=O)C(C)Sc1nnc(Cc2cc(=O)[nH]c(=O)[nH]2)n1-c1cccc(OC)c1 (stereo not shown),0.328
7,CCOC(=O)c1cccc(NC(=O)c2cc(C)nn2-c2ccccc2)c1,-50.5
8,O=C(Nc1cccc([N+](=O)[O-])c1)C1CC(=O)N(C2CCCCC2)C1 (stereo not shown),-45.4
9,CCCn1c(C(O)c2cc(OC)c(OC)c(OC)c2)nc2ccccc21 (stereo not shown),8.16
10,CS(=O)(=O)N(CC(=O)N1CCN(Cc2ccccc2)CC1)c1ccccc1Br,6.95
11,Cc1ccc2c(c1)C1CN(C)CCC1N2C(=O)c1cccc(S(=O)(=O)N2CC(C)CC(C)C2)c1.Cl (stereo not shown),-44.8
12,CCOC(=O)c1cnc2c(cnn2C)c1NCCC(O)C(F)(F)F (stereo not shown),0.469
13,O=C(Nc1ccccc1N1CCCC1)c1ccc(N2CCCC2=O)cc1,-22.1
14,CC(C)c1ccc(NC(=O)c2sccc2-n2cccc2)cc1,7.16
15,COc1ccc(NC(=O)c2cccs2)cc1O,-5.28
16,COc1ccc(Cn2c(-c3ccc(C)cc3)c[n+]3ccccc23)cc1.[Br-],-33.4
17,COCCNC(=S)Nc1ccc2nc(N3CCN(C)CC3)cc(C)c2c1,8.03
18,COc1ccccc1CN1CC(C(=O)NCc2cc(C(C)C)no2)CCC1=O (stereo not shown),21
19,CCOP(=O)(CC(C(C)=O)C(O)c1ccccc1)OCC (stereo not shown),11.3
20,COc1ccc(NC(=O)CSc2nccn2Cc2ccco2)cc1,8.27
21,CC1(C)CC2(CCO1)OC(=O)CC2C(=O)NCc1ccccc1 (stereo not shown),-9.54
22,Cc1ccc(CNC(=O)COc2ccc(S(=O)(=O)N3CCOCC3)cc2)cc1,6.34
23,O=C(Nc1nnc(C2=COCCO2)o1)c1cccc(Br)c1,13.6
24,Nc1cc(C2CCCC2)nn1-c1ccccc1,-0.945
25,COc1ccccc1N=C1SCC(=O)N1Cc1ccco1,9.34
26,Cc1ccc2nc(-c3ccncc3)cc(-c3ccccc3)c2c1,-10.3
27,CCOC(=O)C1(Cc2cccc(Cl)c2)CCCN(C2CCN(C(C)=O)CC2)C1 (stereo not shown),5.28
28,Cc1cc(C)c2cc3c(N)c(C(=O)N4CCOCC4)sc3nc2c1,23.9

row,Compound,"hERG current change (%, negative = inhibition) at 10uM [%]"
1,Cc1ccc(C(=O)/C=C/Nc2cccc(O)c2)cc1,-7.14
2,COC(=O)c1ccc(CNS(=O)(=O)c2ccc3ccccc3c2)cc1,2.29
3,O=S(=O)(N[C@H]1C[C@@H](NS(=O)(=O)OCC(Cl)(Cl)Cl)C2CCCCC21)OCC(Cl)(Cl)Cl (stereo partly shown),12.6
4,CN(C1CCCCC1)S(=O)(=O)c1ccc(NC(=O)Cn2nc(-c3ccc(F)cc3)ccc2=O)cc1,-9.76
5,CCOC(=O)CSc1n[nH]c(NC(C)=O)n1,7.46
6,Cc1ccc2nc(Cl)c3cc(C(=O)NCCCN4CCCC4)sc3c2c1,-10.3
7,O=[N+]([O-])c1cc(-c2ccc(/C=N/c3nc4ccccn4c3-c3ccco3)o2)ccc1Cl,-22
8,CC(=O)N(c1ccc(N(C(C)=O)S(=O)(=O)c2ccccc2)cc1)S(=O)(=O)c1ccccc1,4.64
9,COc1ccc(N=Cc2c[nH][nH]c2=O)cc1,6.13
10,O=C(NNC(=O)c1ccccc1OCc1ccccc1)c1ccccc1O,15.2
11,O=C(Oc1ccc(/C=N/NC(=O)c2ccco2)cc1)c1ccccc1,-1.76
12,C[C@H](NC(=O)c1nc[nH]c1C(=O)N1CCc2ccccc2C1)c1ccccc1,6.35
13,Cc1ccc(N2C(=O)NC(=O)/C(=C\c3ccc(N4CCOCC4)cc3)C2=O)cc1,10.1
14,O=S(=O)(NCCO)c1cccc2cccnc12,7.62
15,CN(Cc1ccccc1)C(=O)CNC(=O)Cn1cnc2ccccc2c1=O,-7.88
16,CC(C)(C)C(=O)N1CCN(c2ccc(NC(=O)c3ccco3)cc2)CC1,4.67
17,CSc1nnc(C2CCN(CC(=O)Nc3ccccc3N3CCOCC3)CC2)n1C,-47.8
18,O=[N+]([O-])c1cc(/C=N\Nc2nc(-c3ccccc3)cs2)ccc1O,24.4
19,CC(=O)Nc1ccc(Nc2nc(-c3sc(NC(C)=O)nc3C)cs2)cc1,18.6
20,NS(=O)(=O)c1ccc(CCNC(=O)Cc2c[nH]c3ccccc23)cc1,9.33
21,COc1cc(NS(=O)(=O)c2ccc(NC(=O)c3ccco3)cc2)nc(OC)n1,5.11
22,O=C(OCC(=O)N1CCCc2ccccc21)c1cnc(Cl)c(Cl)c1,-42
23,CCOc1ccccc1NS(=O)(=O)c1c(C)noc1C,-7.77
24,CCCCNC(=O)c1nn2c(C(F)(F)F)cc(-c3ccccc3)nc2c1Br,16.4
25,Cc1cccc2cc(CN(Cc3ccco3)C(c3nnnn3CCc3ccccc3)C(C)C)c(=O)[nH]c12 (stereo not shown),13.2
26,Cc1cccc(NC(=S)NCCSc2ccc(Cl)cc2)c1,0.53
27,CN(CCCN1CCOCC1)C(=O)c1cc(COc2cccc(C(F)(F)F)c2)on1,-40.5
